Each structure is given as a SMILES string. Among all 48,000 compounds or so, about 120 (0.25%) were called active. Roughly 4% stayed inconclusive and do not appear here. Calls follow the shape of the dose curve; as a rule, active = well fitted activation curve with a large enough effect; inconclusive = small, poorly fitted or top-dose-only effect, or another doubt; inactive = no such curve, though single readings can be large or run the other way. The list shows a part of the results, in another mix than the full data. Where no call is shown, the source filed none.
Potency is read from the fitted curve at half-maximal effect.

This experiment is described as follows: Primary qHTS for Identification of Small Molecule Activators of Huntingtin-Antisense Promoter Activity. Also: nearly all actives have a fitted effect of over 55% in size. As to conditions: HEK293 HTT-AS promoter firefly luciferase reporter, 24 h; activity change, positive = activation: at 57.5 µM (top of the series), percent change from vehicle, -100% = no light. Summed up:
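Firefly luciferase signal from promoter-reporter HEK293 cells was scaled between vehicle (0%) and zero RLU (-100%). Compounds were tested at final concentrations of up to 57.5 uM over 24 h at 37 degrees C. PTC124 at 50 uM final served as control inhibitor.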
As to `COc1ccc(C2C(=O)N(C3CCCCCC3)CC(=O)N2CCC2=CCCCC2)cc1` (stereo unspecified), the activity change, positive = activation was -25.1%.
Take `Cc1ccc(N(CC(=O)N2CCN(c3cccc(Cl)c3)CC2)S(=O)(=O)c2c(C)noc2C)cc1`: the “activity change, positive = activation” value was inactive: -30%.
Regarding `COc1ccc(NC(=O)C(Cc2c[nH]c3ccccc23)NC(=O)OC(C)(C)C)cc1` (stereo unspecified), the activity change, positive = activation was -6.4%.
Take `CCCCc1ccc(NC(=O)c2cc(-c3ccc(C)c(F)c3)on2)cc1`: the activity change, positive = activation is -3.54%.
`COc1ccc(C2=C(Nc3ccc(Br)c(C)c3)c3ccccc3C2=O)cc1`: the activity change, positive = activation was -36.4%.
As to `CCN(CC)C(=O)c1sc(NC(=O)C2c3ccccc3Oc3ccccc32)c(C(=O)OC(C)C)c1C`, the activity change, positive = activation is -12.9%.
On the same count and under the same terms, the figure for `CCOc1ccc(Nc2nc3ccccc3c3nnc(CC)n23)cc1` is -7.55%; for `COc1ccc(NC(=O)CC2C(=O)N(c3ccccc3)C(=O)N2Cc2cccnc2)cc1` (stereo unspecified) it is 9.07%; for `Cc1oc2ccc(O)c(CN3CCN(C)CC3)c2c1C(=O)Nc1ccccc1` it is 4.33%.
On to `CCCCCOc1ccc(C2SC(=O)NC2=O)cc1OCC` (stereo unspecified), for which the “activity change, positive = activation” value was inactive: 13.3%.
For `Cc1cc(C)cc(OCCCn2c(-c3ccc(Cl)cc3)nc3ccccc3c2=O)c1`, the activity change, positive = activation was -1.83%.
Regarding `Cc1ccc(-c2cc(C(=O)N(Cc3ccccc3)Cc3ccco3)no2)cc1F`, the activity change, positive = activation was -5.92%.
On to `O=C(Nc1ccc(F)cc1F)c1noc2c1CCc1ccccc1-2`, for which the activity change, positive = activation came to 95.1%.
The same measure, in the same setting: then `CCc1ccc(NC(=O)CC2C(=O)N(c3ccccc3)C(=O)N2C(C)C)cc1` (stereo unspecified), with 25.8%; and `Cc1ccc(C)c(NC(=O)Cn2c(=O)n(CCC(=O)NCc3ccc4c(c3)OCO4)c(=O)c3ccccc32)c1`, with inactive: -8.08%.
Regarding `Cc1ccc(-c2cc(NC(=O)c3ccccc3Cl)on2)cc1`, the Potency was active: 4.47 µM.
In the case of `CCCOc1ccc(NC(=O)CC2C(=O)N(c3ccc(C)cc3)C(=O)N2C(C)C)cc1` (stereo unspecified), the activity change, positive = activation is -14%.
As to `C=C(C)Cn1c(SCC(=O)Nc2ccccc2C)nc2sc3c(c2c1=O)CCCC3`, the activity change, positive = activation was -11%.
In the case of `O=C(Nc1ncc(-c2cc(C(F)F)nn2-c2c(Cl)cccc2Cl)s1)C1CC1`, the “activity change, positive = activation” value was inactive: -42.3%.
As to `O=S(=O)(Nc1ccc(-c2ccc(N3CCCCC3)nn2)cc1)c1ccc(OC(F)(F)F)cc1`, the activity change, positive = activation is -3.32%.
Consider `Cc1nn(-c2ccc(N3CCCCC3)nn2)c(C)c1CCC(=O)NCc1ccc(F)cc1`, for which the activity change, positive = activation worked out at 6.33%.
The same measure, in the same setting: the figure for `O=C(CSc1nc(-c2cccs2)nc2cc(=O)[nH]n12)Nc1ccccc1` is -10.5%.
In the case of `Cn1c(=O)n(C)c2cc(NS(=O)(=O)c3ccc(F)cc3)c(NCc3ccccc3)cc21`, the activity change, positive = activation turned out to be 46.3%.
Same read-out and setting: then `CC1=C(c2ccc(C(C)C)cc2)S(=O)(=O)N=C1N1CCC(C(=O)Nc2ccc(C)cc2)CC1`, with inactive: -30.4%.
The same measure, in the same setting: then `COc1ccccc1CNC(=O)c1cnc2sc(N3CCCCC3)nn2c1=O`, with 3.81%.
Regarding `Cc1cccc(NC(=O)CSc2nc(-c3cccs3)nc3cc(=O)[nH]n23)c1`, the activity change, positive = activation was -11.1%.
On the same count and under the same terms, the figure for `CCOC(=O)c1c(NC(=O)c2cc(-c3ccc(OC)c(OC)c3)on2)sc2c1CCCC2` is 1.64%; for `COc1ccc2c(C)c(CC(=O)NCc3ccccc3Cl)c(=O)oc2c1OC` it is -14.6%.
With `CN(C)S(=O)(=O)N1CCC(n2c(C(F)(F)F)nc3cccnc32)CC1`, the activity change, positive = activation was determined as 0.498%.
As for `CCCOc1ccc(C(=O)Nc2cc3c(cc2N2CCCCC2)n(C)c(=O)n3C)cc1`, the activity change, positive = activation was found to be 1.72%.
The same measure, in the same setting: then `COCCCNC(=O)c1cnc2sc(N3CCCCC3)nn2c1=O`, with 2.6%.
As to `Cc1ccc2oc(-c3ccc(Cl)c(NC(=O)c4cc5ccccc5o4)c3)nc2c1`, the activity change, positive = activation was 81.1%.
Same read-out and setting: then `Cc1ccc(NC(c2nnc(-c3ccccc3)o2)c2ccccc2F)c(Cl)c1` (stereo unspecified), with 2.54%.
With `Cc1ccc(S(=O)(=O)C(CNS(=O)(=O)c2ccc(F)c(C(F)(F)F)c2)c2ccco2)cc1` (stereo unspecified), the “activity change, positive = activation” value was inactive: 4.18%.
On to `COc1ccccc1CNC(=O)CCc1c(C)nn(-c2ccc(N3CCCCC3)nn2)c1C`, for which the activity change, positive = activation is 17.7%.
As for `COC(=O)c1ccc(NC(=O)CN(Cc2ccccc2)S(=O)(=O)c2ccc(Cl)cc2)cc1`, the activity change, positive = activation is -47.9%.
On to `O=C(C1CCN(c2ncnc3c2nc2n3CCCCC2)CC1)N1CCN(c2ccc(Cl)cc2)CC1`, for which the “activity change, positive = activation” value is inactive: -10.6%.
As for `CCOc1ccc(C2C(=O)N(C3CCCCC3)CC(=O)N2CCc2ccccc2)cc1OC` (stereo unspecified), the activity change, positive = activation was -25.7%.
Regarding `COc1ccccc1NC(=O)c1ccc2c(Cl)c3c(nc2c1)CCCC3`, the “activity change, positive = activation” value is inactive: 5.26%.
Same read-out and setting: then `Cc1ccc(-n2ncc3c(NCCCN4CCOCC4)ncnc32)cc1Cl`, with inactive: -7.32%.
Take `COc1cc(Cl)c(C)cc1NC(=O)c1cc2ccc3cccnc3c2[nH]1`: the “activity change, positive = activation” value is inactive: -15.1%.
In the case of `CCOC(=O)C=C[C@H](C[C@@H]1CCNC1=O)NC(=O)[C@@H](CC(=O)[C@@H](NC(=O)c1cc(C)on1)C(C)C)Cc1ccc(F)cc1`, the “activity change, positive = activation” value was inactive: 10.6%.
Turning to `Cc1ccc2nc(NCc3ccccc3)c3nnnn3c2c1`, the activity change, positive = activation came to 6.26%.
Consider `COC(=O)c1cc2oc3ccccc3c2n1Cc1nc(-c2ccccc2Cl)oc1C`, for which the activity change, positive = activation was -7.19%.
With `Cc1ccc(NC(=O)CCOc2ccccc2)cc1`, the Potency is active: 10 µM.
As to `COC(=O)c1ccc(NC(=O)CC2C(=O)N(c3cccc(OC)c3)C(=O)N2Cc2ccco2)cc1` (stereo unspecified), the activity change, positive = activation was -4.33%.

(Values after PubChem BioAssay AID1508624 (National Center for Advancing Translational Sciences (NCATS), 2021).)
